{"source": "PubChem BioAssay AID1508642", "about": "(National Center for Advancing Translational Sciences (NCATS), 2021)", "note": "Hit rate of the full screen: of about 43,000 compounds, about 200 (0.47%) were called active. Inconclusive results (about 12%) are left out. Calls come from the whole dose curve; as a rule, active = well fitted cell-killing curve with a large enough effect; inconclusive = small, poorly fitted or top-dose-only effect, or effect the other way; inactive = flat fitted curve, though single readings scatter. The list shows a part of the results. % is set by controls: 0 for no effect and ±100 for the full control effect."}
{"assay": "Cell viability qHTS assay in S16 Pmp22-F2sN cells; note: nearly all actives have a fitted effect of over 65% in size", "conditions": "S16 Pmp22-F2sN Schwann cells viability, CellTiter-Glo, 24 h; series mostly up to 57.5 µM; activity change, negative = cytotoxicity: at the top concentration", "in_short": "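Viability was measured by CellTiter-Glo luminescence (15 min, room temperature). This followed 24 h at 37 °C of compound exposure (23 nL pin transfer) in S16 Pmp22-F2sN Schwann cells, 500-1,000 per well.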"}
{"smiles": "CCOC(=O)c1ccccc1NC(=O)CN1C(=O)CC(c2ccco2)Sc2ccccc21", "note": "(centres undefined)", "activity change, negative = cytotoxicity": "inactive: 1.33%"}
{"smiles": "Cc1ccc2c(c1)sc1nc(-c3cc4ccccc4oc3=O)cn12", "activity change, negative = cytotoxicity": "inactive: -1.66%"}
{"smiles": "Cc1ccccc1C(=O)Nc1ccc(OCc2cc(=O)n3ccccc3n2)cc1", "activity change, negative = cytotoxicity": "inactive: -9.48%"}
{"smiles": "Cc1ccc(NC(=O)Cn2cc(S(=O)(=O)N3CCCC3)c(S(=O)(=O)N3CCCC3)c2)cc1F", "activity change, negative = cytotoxicity": "inactive: 7.84%"}
{"smiles": "COc1cccc(NC(=O)CCN2CCN(c3ccccc3)CC2)c1", "activity change, negative = cytotoxicity": "inactive: -14.4%"}
{"smiles": "Cc1ccc(C)c(S(=O)(=O)c2nnn3c2nc(Nc2ccc(C)c(C)c2)c2ccccc23)c1", "activity change, negative = cytotoxicity": "inactive: 1.49%"}
{"smiles": "Cc1ccc(CCNC(=O)c2c[nH]c3ccc(S(=O)(=O)Nc4ccc(C)cc4C)cc3c2=O)cc1", "activity change, negative = cytotoxicity": "inactive: -0.593%"}
{"smiles": "CCSc1oc(-c2ccco2)nc1S(=O)(=O)c1ccc(Br)cc1", "activity change, negative = cytotoxicity": "inactive: -12.4%"}
{"smiles": "Cc1ccc(NC(=O)Cn2c(=O)c3ccccc3n3nncc23)cc1", "activity change, negative = cytotoxicity": "inactive: 1.8%"}
{"smiles": "COc1ccccc1NC(=O)Cn1c(=O)n(CCC(=O)NCC2CCCO2)c(=O)c2cc(OC)c(OC)cc21", "note": "(centres undefined)", "activity change, negative = cytotoxicity": "inactive: -9.66%"}
{"smiles": "COc1ccccc1-c1cc2nc(C)c(CCC(=O)O)c(C)n2n1", "activity change, negative = cytotoxicity": "inactive: -0.142%"}
{"smiles": "CCC(=O)N1CCc2cc(S(=O)(=O)NCCC(=O)Nc3cc(C)ccc3OC)ccc21", "activity change, negative = cytotoxicity": "inactive: -8.04%"}
{"smiles": "Cc1ccc2nc(-c3ccc(O)cc3)c(Nc3ccc(Cl)cc3)n2c1", "activity change, negative = cytotoxicity": "inactive: -0.638%"}
{"smiles": "Cc1ccc(-c2nn(-c3ccc(F)cc3)c3c2cnc2cc(F)c(F)cc23)cc1", "activity change, negative = cytotoxicity": "inactive: 3.63%"}
{"smiles": "CCCN(CCC)C(=O)Cn1c(=O)n(-c2ccc(Cl)cc2)c(=O)c2c3c(sc21)CCCCC3", "activity change, negative = cytotoxicity": "inactive: 17.1%"}
{"smiles": "CCCc1cc(=O)[nH]c(SCC(=O)N2CCN(c3ccccc3OC)CC2)n1", "activity change, negative = cytotoxicity": "inactive: 11.1%"}
{"smiles": "COC(=O)CCNC(=O)NC(CCC(C)C)c1c(-n2cccc2)sc2c1CCN(C)C2", "note": "(centres undefined)", "activity change, negative = cytotoxicity": "inactive: 18.2%"}
{"smiles": "O=S(=O)(c1ccc(-c2cc(C(F)(F)F)on2)s1)N1CCN(c2ccc(F)cc2)CC1", "activity change, negative = cytotoxicity": "inactive: 1.48%"}
{"smiles": "COc1cc(NS(=O)(=O)c2cc3c(cc2C)N(C)CCO3)cc(OC)c1OC", "activity change, negative = cytotoxicity": "inactive: 3.01%"}
{"smiles": "COc1ccc(NC(=O)C2CCCN(c3ncnc4c3nc3n4CCCCC3)C2)c(OC)c1", "note": "(centres undefined)", "activity change, negative = cytotoxicity": "inactive: -0.426%"}
{"smiles": "Cc1cc(Br)ccc1NC(=O)Cn1cc(S(=O)(=O)N2CCN(c3ccccc3F)CC2)c2ccccc2c1=O", "activity change, negative = cytotoxicity": "inactive: 0.0117%"}
{"smiles": "Cc1ccc(-n2c3c(cc(-c4nc(-c5ccc(Cl)cc5)cs4)c2=O)C(=O)CC(C)(C)C3)cc1C", "activity change, negative = cytotoxicity": "inactive: 2.47%"}
{"smiles": "C#CCSc1nc(-c2ccccc2)cc(-c2ccccc2)c1C#N", "activity change, negative = cytotoxicity": "inactive: 4.19%"}
{"smiles": "CCOc1ccc(CNC(=O)c2cnc3sc(N4CCOCC4)nn3c2=O)cc1", "activity change, negative = cytotoxicity": "inactive: 4.37%"}
{"smiles": "CCS(=O)(=O)N1CCc2cc(C(=O)Nc3ccc(C(=O)OC)cc3)ccc21", "activity change, negative = cytotoxicity": "inactive: 13%"}
{"smiles": "CCn1cc(C(=O)N2CCN(c3cccc(Cl)c3)CC2)c2cc(OC)c(OC)cc2c1=O", "activity change, negative = cytotoxicity": "inactive: -0.329%"}
{"smiles": "CC1=C(c2ccc(C(C)C)cc2)S(=O)(=O)NC1=NCCCN1CCN(c2ccccc2F)CC1", "activity change, negative = cytotoxicity": "inactive: 19.7%"}
{"smiles": "Cc1ccc(C)c(N2CCN(C(=O)CCc3nnc4n(CC(C)C)c(=O)c5ccccc5n34)CC2)c1", "activity change, negative = cytotoxicity": "inactive: 13.4%"}
{"smiles": "O=C(Nc1ccc(F)cc1F)c1cc(-c2ccc(Cl)cc2)on1", "activity change, negative = cytotoxicity": "inactive: 18.4%"}
{"smiles": "CCOC(=O)c1ccc(NC(=O)CCn2c(=O)c3cccn3c3cccnc32)cc1", "activity change, negative = cytotoxicity": "inactive: 15.8%"}
{"smiles": "CCc1cccc(NS(=O)(=O)c2ccc(-n3cccn3)cc2)c1", "activity change, negative = cytotoxicity": "inactive: -15.1%"}
{"smiles": "CCN(CC)C(=O)Cn1c(=O)n(-c2ccc(C)c(C)c2)c(=O)c2c3c(sc21)CCCCC3", "activity change, negative = cytotoxicity": "inactive: 17.8%"}
{"smiles": "COc1cccc(C(=O)Nc2cccc(-c3cn4ccsc4n3)c2)c1OC", "activity change, negative = cytotoxicity": "inactive: -8.17%"}
{"smiles": "Cc1ccccc1-c1noc(-c2cccnc2N2CCN(c3ccccc3)CC2)n1", "activity change, negative = cytotoxicity": "inactive: 11.4%"}
{"smiles": "Cc1cccc(-c2nc3c4ccccc4n(Cc4cccc(Cl)c4)c(=O)n3n2)c1", "activity change, negative = cytotoxicity": "inactive: -10.2%"}
{"smiles": "O=C(CN1C(=O)COc2ccc(S(=O)(=O)N3CCOCC3)cc21)N1CCN(c2cccc(Cl)c2)CC1", "activity change, negative = cytotoxicity": "inactive: 3.22%"}
{"smiles": "COc1ccc(NC(=O)c2ccc3c(SCC(=O)O)c4c(nc3c2)CCCC4)c(OC)c1", "activity change, negative = cytotoxicity": "inactive: 12.5%"}
{"smiles": "CCOc1ccc(S(=O)(=O)c2cn(Cc3ccccc3C)c3ccc(OC)cc3c2=O)cc1", "activity change, negative = cytotoxicity": "inactive: -15.4%"}
{"smiles": "CCc1nn(CC(=O)NCCCN2CCN(CC)CC2)c(=O)c2cc3occc3n12", "activity change, negative = cytotoxicity": "inactive: -5.36%"}
{"smiles": "O=C(c1ccc(F)cc1)N1CCC(c2nc(-c3ccc(S(=O)(=O)N4CCCC4)cc3)no2)CC1", "activity change, negative = cytotoxicity": "inactive: 13.6%"}
{"smiles": "COc1ccccc1N(CC(=O)Nc1ccc2c(c1)OCO2)S(=O)(=O)c1ccc(C)cc1", "activity change, negative = cytotoxicity": "inactive: 7.15%"}
{"smiles": "O=C(Cn1cnc2onc(-c3ccc(F)cc3)c2c1=O)Nc1ccc(F)c(Cl)c1", "activity change, negative = cytotoxicity": "inactive: 1.24%"}
{"smiles": "O=C(CN1c2ccccc2S(=O)(=O)c2ccccc21)Nc1ccccc1Cl", "activity change, negative = cytotoxicity": "inactive: -7.15%"}
{"smiles": "NC(=O)Cn1c(=O)n(CCCCCC(=O)NCc2ccc(F)cc2)c(=O)c2sccc21", "activity change, negative = cytotoxicity": "inactive: 20.6%"}
{"smiles": "O=C(C1COc2ccccc2O1)N(Cc1cccnc1)c1nc2c(Cl)cccc2s1", "note": "(centres undefined)", "activity change, negative = cytotoxicity": "inactive: -1.26%"}
{"smiles": "COc1ccc(OC)c(NC(=O)CSc2ncc3c(n2)-c2ccccc2N(C)S3(=O)=O)c1", "activity change, negative = cytotoxicity": "inactive: 2.41%"}
{"smiles": "CCCNC(=O)c1ccc(-c2nc(CS(=O)(=O)c3ccc(C)cc3)c(C)o2)cc1", "activity change, negative = cytotoxicity": "inactive: -4.12%"}
{"smiles": "Cc1ccc2c(c1)c(CC(=O)Nc1ccc(C)c(F)c1)c(C(=O)O)n2C", "activity change, negative = cytotoxicity": "inactive: 2.68%"}
{"smiles": "Cc1ccc2nc(COc3ccccc3NC(=O)c3ccccc3F)cc(=O)n2c1", "activity change, negative = cytotoxicity": "inactive: 9.88%"}
{"smiles": "CCOc1cccc(C2c3[nH]c4ccccc4c3CCN2C(=O)CSCc2ccc(F)cc2)c1", "note": "(centres undefined)", "activity change, negative = cytotoxicity": "inactive: -17%"}
{"smiles": "CCc1cccc(NC(=O)C2Cc3ccccc3N2C(=O)c2ccccc2)c1", "note": "(centres undefined)", "activity change, negative = cytotoxicity": "inactive: -7.08%"}
{"smiles": "CCOc1ccc(C(=O)N(Cc2cc(OC)c(OC)c(OC)c2)c2ccccn2)cc1", "activity change, negative = cytotoxicity": "inactive: 2.17%"}
{"smiles": "COc1ccc(N(CC(=O)Nc2cccc(C(C)=O)c2)S(=O)(=O)c2ccccc2)c(OC)c1", "activity change, negative = cytotoxicity": "inactive: -0.912%"}
{"smiles": "CCOC(=O)C1=C(C)NC(=O)NC1c1cn(-c2ccccc2)nc1-c1ccc(OC(C)C)cc1", "note": "(centres undefined)", "activity change, negative = cytotoxicity": "inactive: 0.111%"}
{"smiles": "Cc1nn(C)c2c1c(C(F)(F)F)cc(=O)n2C(C)C(=O)NCCc1ccccc1", "note": "(centres undefined)", "activity change, negative = cytotoxicity": "inactive: 8.7%"}
{"smiles": "CCc1ccc(NC(=O)C(NS(=O)(=O)c2cccc3nsnc23)c2ccccc2)cc1", "note": "(centres undefined)", "activity change, negative = cytotoxicity": "inactive: 4.92%"}
{"smiles": "Nc1cc(=O)nc(SCC(=O)Nc2ccc(F)cc2)n1-c1cccc(Cl)c1", "activity change, negative = cytotoxicity": "inactive: 6.86%"}
{"smiles": "Cc1cccc(N2CCN(C(=O)c3c(C)oc4ncnc(N5CCOCC5)c34)CC2)c1C", "activity change, negative = cytotoxicity": "inactive: -0.888%"}
{"smiles": "COc1ccc(C)cc1NC(=O)c1cc(S(=O)(=O)N2CCC(C)CC2)cn1C", "activity change, negative = cytotoxicity": "inactive: 19.1%"}
